Results published in US5760092A, “Allocolchinones and uses thereof” (Brandeis University, priority 1996, dated 1998).

Legend:
[1] = system: A549/ATCC non-small cell lung cancer cells
[2] = system: HCC-2998 colon cancer cells
[3] = system: HCT-116 colon cancer cells
UACC-62 melanoma cells [4] = system: UACC-62 melanoma cells
[5] = system: OVCAR-5 ovarian cancer cells
786-0 renal cancer cells [6] = system: 786-0 renal cancer cells
SN12C renal cancer cells [7] = system: SN12C renal cancer cells
UO-31 renal cancer cells [8] = system: UO-31 renal cancer cells
[9] = system: A549/ATCC non-small cell lung cancer cells; test: cells; settings: Homo sapiens
[10] = system: NCI-H23 non-small cell lung cancer cells; test: cells; settings: Homo sapiens, NCI-H23, read-out: Percent Growth, log10 conc -6.0
LOX IMVI melanoma cells = test: cells; settings: Homo sapiens, read-out: Percent Growth, log10 conc -8.0
UACC-62 melanoma cells [11] = test: cells; settings: Homo sapiens
[12] = system: IGR-OV1 ovarian cancer cells; test: cells; settings: Homo sapiens
[13] = system: OVCAR-4 ovarian cancer cells; test: cells; settings: Homo sapiens
786-0 renal cancer cells [14] = test: cells; settings: Homo sapiens
ACHN renal cancer cells = test: cells; settings: Homo sapiens, read-out: Percent Growth, log10 conc -8.0
SN12C renal cancer cells [15] = test: cells; settings: Homo sapiens
TK-10 renal cancer cells = test: cells; settings: Homo sapiens
UO-31 renal cancer cells [16] = test: cells; settings: Homo sapiens
[17] = system: PC-3 prostate cancer cells; test: cells
[18] = system: DU-145 prostate cancer cells; test: cells; settings: Homo sapiens, DU-145, read-out: Percent Growth, log10 conc -8.0
[19] = system: MDA-MB-231/ATCC breast cancer cells; test: cells; settings: Homo sapiens
[20] = read-out: Percent Growth, log10 conc -7.0
[21] = read-out: Percent Growth, log10 conc -8.0

In the case of `CCCC(=O)NC1CCc2cc(OC)c(OC)c(OC)c2-c2ccc(C(C)=O)cc21` (stereo not drawn), the “Percent Growth” value (RPMI-8226 leukemia cells; log10 conc -5.0, 10 µM) is reported as 9%, the “Percent Growth” value (RPMI-8226 leukemia cells; log10 conc -7.0, 0.1 µM) is reported as 12% and the “Percent Growth” value (RPMI-8226 leukemia cells; log10 conc -8.0, 0.01 µM) is reported as 15%. The “Percent Growth” value ([1]; log10 conc -4.0, 100 µM) was 11%, the “Percent Growth” value ([1]; log10 conc -5.0, 10 µM) was 18% and the “Percent Growth” value ([1]; log10 conc -7.0, 0.1 µM) was 17%. For the same molecule, the “Percent Growth” value ([2]; log10 conc -4.0, 100 µM) was -54% and -51%, the “Percent Growth” value ([2]; log10 conc -6.0, 1 µM) was 21% and the “Percent Growth” value ([2]; log10 conc -7.0, 0.1 µM) was 22%. For the same molecule, the “Percent Growth” value ([2]; log10 conc -8.0, 0.01 µM) was 23%, the “Percent Growth” value ([3]; log10 conc -5.0, 10 µM) was 3% and the “Percent Growth” value ([3]; log10 conc -6.0, 1 µM) was 5%. For the same molecule, the “Percent Growth” value ([3]; log10 conc -8.0, 0.01 µM) was 8%, the “Percent Growth” value (KM12 colon cancer cells; log10 conc -5.0) was -27% and the “Percent Growth” value (KM12 colon cancer cells; log10 conc -6.0, 1 µM) was -32%. The “Percent Growth” value (MALME-3M melanoma cells; log10 conc -5.0, 10 µM) was 25%, the “Percent Growth” value (MALME-3M melanoma cells; log10 conc -6.0, 1 µM) was 17% and the “Percent Growth” value (MALME-3M melanoma cells; log10 conc -7.0, 0.1 µM) was 21%. For the same molecule, the “Percent Growth” value (UACC-257 melanoma cells; log10 conc -5.0, 10 µM) was 32%, the “Percent Growth” value (UACC-257 melanoma cells; log10 conc -6.0, 1 µM) was 39% and the “Percent Growth” value (UACC-257 melanoma cells; log10 conc -7.0, 0.1 µM) was 32%. For the same molecule, the “Percent Growth” value (UACC-62 melanoma cells [4]; log10 conc -4.0, 100 µM) was 20%, the “Percent Growth” value (UACC-62 melanoma cells [4]; log10 conc -6.0, 1 µM) was 30% and the “Percent Growth” value (UACC-62 melanoma cells [4]; log10 conc -7.0, 0.1 µM) was 30%. The “Percent Growth” value (UACC-62 melanoma cells [4]; log10 conc -8.0, 0.01 µM) was 28%, the “Percent Growth” value ([5]; log10 conc -4.0, 100 µM) was 8% and the “Percent Growth” value ([5]; log10 conc -5.0, 10 µM) was 22%. The “Percent Growth” value ([5]; log10 conc -6.0, 1 µM) was 26%, the “Percent Growth” value ([5]; log10 conc -7.0, 0.1 µM) was 25% and the “Percent Growth” value (786-0 renal cancer cells [6]; log10 conc -4.0, 100 µM) was 4% and 12%. For the same molecule, the “Percent Growth” value (786-0 renal cancer cells [6]; log10 conc -5.0, 10 µM) was 24%, the “Percent Growth” value (786-0 renal cancer cells [6]; log10 conc -6.0, 1 µM) was 25% and the “Percent Growth” value (786-0 renal cancer cells [6]; log10 conc -7.0, 0.1 µM) was 31%. For the same molecule, the “Percent Growth” value (786-0 renal cancer cells [6]; log10 conc -8.0, 0.01 µM) was 35%, the “Percent Growth” value (SN12C renal cancer cells [7]; log10 conc -5.0, 10 µM) was 14% and the “Percent Growth” value (SN12C renal cancer cells [7]; log10 conc -7.0, 0.1 µM) was 14%. For the same molecule, the “Percent Growth” value (SN12C renal cancer cells [7]; log10 conc -8.0, 0.01 µM) was 15%, the “Percent Growth” value (UO-31 renal cancer cells [8]; log10 conc -4.0, 100 µM) was -4% and 1% and the “Percent Growth” value (UO-31 renal cancer cells [8]; log10 conc -6.0, 1 µM) was 32%. For the same molecule, the “Percent Growth” value (UO-31 renal cancer cells [8]; log10 conc -7.0, 0.1 µM) was 33%, the “Percent Growth” value (UO-31 renal cancer cells [8]; log10 conc -8.0, 0.01 µM) was 42% and the activity at 100 µM ([9]; A549, read-out: Percent Growth, log10 conc -4.0) was 13%. It also gave an activity at 10 µM ([9]; A549, read-out: Percent Growth, log10 conc -5.0) of 12%, an activity at 1 µM ([9]; A549, read-out: Percent Growth, log10 conc -6.0) of 12% and an activity at 0.1 µM ([9]; A549, read-out: Percent Growth, log10 conc -7.0) of 14%. It also gave an activity at 1 µM [10] of 8%, an activity at 0.01 µM (LOX IMVI melanoma cells) of 31% and an activity at 100 µM (UACC-62 melanoma cells [11]; UACC-62, read-out: Percent Growth, log10 conc -4.0) of 26%. The activity at 10 µM (UACC-62 melanoma cells [11]; UACC-62, read-out: Percent Growth, log10 conc -5.0) was 36%, the activity at 1 µM (UACC-62 melanoma cells [11]; UACC-62, read-out: Percent Growth, log10 conc -6.0) was 37% and the activity at 0.1 µM (UACC-62 melanoma cells [11]; UACC-62, read-out: Percent Growth, log10 conc -7.0) was 31%. The activity at 0.01 µM (UACC-62 melanoma cells [11]; UACC-62, read-out: Percent Growth, log10 conc -8.0) was 19%, the activity at 10 µM ([12]; IGROV-1, read-out: Percent Growth, log10 conc -5.0) was 21% and the activity at 1 µM ([12]; IGROV-1, read-out: Percent Growth, log10 conc -6.0) was 16%. For the same molecule, the activity at 0.1 µM ([12]; IGROV-1, read-out: Percent Growth, log10 conc -7.0) was 14%, the activity at 0.01 µM ([12]; IGROV-1, read-out: Percent Growth, log10 conc -8.0) was 28% and the activity at 100 µM ([13]; OVCAR-4, read-out: Percent Growth, log10 conc -4.0) was 19%. It also gave an activity at 10 µM ([13]; OVCAR-4, read-out: Percent Growth, log10 conc -5.0) of 48%, an activity at 1 µM ([13]; OVCAR-4, read-out: Percent Growth, log10 conc -6.0) of 49% and an activity at 0.1 µM ([13]; OVCAR-4, read-out: Percent Growth, log10 conc -7.0) of 61%. The activity at 0.01 µM ([13]; OVCAR-4, read-out: Percent Growth, log10 conc -8.0) was 64%, the activity at 10 µM (786-0 renal cancer cells [14]; 786-0, read-out: Percent Growth, log10 conc -5.0) was 14% and the activity at 1 µM (786-0 renal cancer cells [14]; 786-0, read-out: Percent Growth, log10 conc -6.0) was 15%. For the same molecule, the activity at 0.1 µM (786-0 renal cancer cells [14]; 786-0, read-out: Percent Growth, log10 conc -7.0) was 21%, the activity at 0.01 µM (786-0 renal cancer cells [14]; 786-0, read-out: Percent Growth, log10 conc -8.0) was 22% and the activity at 0.01 µM (ACHN renal cancer cells) was 36%. The activity at 100 µM (SN12C renal cancer cells [15]; read-out: Percent Growth, log10 conc -4.0) was 12%, the activity at 10 µM (SN12C renal cancer cells [15]; read-out: Percent Growth, log10 conc -5.0) was 13% and the activity at 1 µM (SN12C renal cancer cells [15]; read-out: Percent Growth, log10 conc -6.0) was 6%. It also gave an activity at 0.1 µM (SN12C renal cancer cells [15]; [20]) of 7%, an activity at 0.01 µM (SN12C renal cancer cells [15]; [21]) of 23% and an activity at 100 µM (TK-10 renal cancer cells; TK-10, read-out: Percent Growth, log10 conc -4.0) of 25%. It also gave an activity at 10 µM (TK-10 renal cancer cells; TK-10, read-out: Percent Growth, log10 conc -5.0) of 69%, an activity at 1 µM (TK-10 renal cancer cells; TK-10, read-out: Percent Growth, log10 conc -6.0) of 83% and an activity at 0.1 µM (TK-10 renal cancer cells; TK-10, read-out: Percent Growth, log10 conc -7.0) of 68%. It also gave an activity at 10 µM (UO-31 renal cancer cells [16]; UO-31, read-out: Percent Growth, log10 conc -5.0) of 22%, an activity at 1 µM (UO-31 renal cancer cells [16]; UO-31, read-out: Percent Growth, log10 conc -6.0) of 24% and an activity at 0.1 µM (UO-31 renal cancer cells [16]; UO-31, read-out: Percent Growth, log10 conc -7.0) of 38%. It also gave an activity at 0.01 µM (UO-31 renal cancer cells [16]; UO-31, read-out: Percent Growth, log10 conc -8.0) of 53%, an activity at 0.1 µM [17, 20] of 8% and an activity at 0.01 µM [17, 21] of 17%. It also gave an activity at 0.01 µM [18] of 5%, an activity at 100 µM ([19]; MDA-MB-231, read-out: Percent Growth, log10 conc -4.0) of 14% and an activity at 10 µM ([19]; MDA-MB-231, read-out: Percent Growth, log10 conc -5.0) of 3%.

Values joined by “and” are separate entries in the source; they are usually repeats but may differ in a detail not shown here. Equal entries are not always repeated. Where two headings read alike, the source gives them in different places.
